Assay results taken from paper PMC4336329 (PLoS ONE, 2015).
The campaign covered roughly 310,000 compounds. About 2,200 (0.71%) showed an effect of 50% or more. Effects have a minus sign here. The list shows a part of the results.

target: human ether-à-go-go-related gene (hERG) potassium channel (human, UniProt Q12809); assay: primary screen, population patch clamp on CHO cells stably expressing hERG
Sequence (Q12809 whole entry, looked up): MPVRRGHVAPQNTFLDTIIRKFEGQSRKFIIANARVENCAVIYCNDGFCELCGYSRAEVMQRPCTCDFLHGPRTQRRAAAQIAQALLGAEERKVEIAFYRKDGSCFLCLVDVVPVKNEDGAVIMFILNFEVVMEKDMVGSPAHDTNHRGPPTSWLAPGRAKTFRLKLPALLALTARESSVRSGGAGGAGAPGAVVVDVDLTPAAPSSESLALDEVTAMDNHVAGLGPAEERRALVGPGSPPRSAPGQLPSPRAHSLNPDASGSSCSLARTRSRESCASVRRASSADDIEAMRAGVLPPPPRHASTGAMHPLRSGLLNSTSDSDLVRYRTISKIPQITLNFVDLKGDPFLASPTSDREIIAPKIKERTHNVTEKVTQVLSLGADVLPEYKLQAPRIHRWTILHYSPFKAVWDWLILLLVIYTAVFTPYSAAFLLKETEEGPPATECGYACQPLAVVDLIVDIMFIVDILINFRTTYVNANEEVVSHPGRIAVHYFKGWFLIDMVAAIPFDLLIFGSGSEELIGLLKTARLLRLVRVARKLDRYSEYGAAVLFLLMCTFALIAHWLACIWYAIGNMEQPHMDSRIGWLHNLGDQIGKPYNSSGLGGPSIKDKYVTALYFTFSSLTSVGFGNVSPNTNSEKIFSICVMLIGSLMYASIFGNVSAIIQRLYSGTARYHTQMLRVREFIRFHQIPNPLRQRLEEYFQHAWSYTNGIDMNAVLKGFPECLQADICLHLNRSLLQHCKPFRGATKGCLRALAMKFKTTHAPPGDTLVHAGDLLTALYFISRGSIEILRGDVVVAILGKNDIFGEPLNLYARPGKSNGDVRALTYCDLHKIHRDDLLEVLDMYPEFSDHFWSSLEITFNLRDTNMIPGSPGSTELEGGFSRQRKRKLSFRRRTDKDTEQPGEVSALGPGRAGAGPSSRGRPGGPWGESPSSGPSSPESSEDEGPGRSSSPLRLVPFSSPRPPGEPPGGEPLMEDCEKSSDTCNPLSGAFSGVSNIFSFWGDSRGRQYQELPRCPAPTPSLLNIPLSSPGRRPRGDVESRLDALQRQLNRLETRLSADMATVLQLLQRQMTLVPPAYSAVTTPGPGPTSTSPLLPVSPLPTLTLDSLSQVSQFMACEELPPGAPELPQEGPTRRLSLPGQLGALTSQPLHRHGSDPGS

Structure (SMILES)	hERG current change (%, negative = inhibition) at 1uM
Cc1cc(Cl)ccc1OCCCC(=O)OCC(=O)c1c(N)n(C)c(=O)n(C)c1=O	4.68%
O=C(Nc1ccccc1Cl)C1(c2ccccc2)CC1(Cl)Cl (stereo not shown)	9.36%
COc1ccc(-n2c(SCC(=O)N3CCCCC3C)nnc2-c2cccnc2)cc1 (stereo not shown)	-3.62%
CCc1ccccc1NC(=O)C1CC(c2ccc(OC)cc2)=NO1 (stereo not shown)	11.6%
CCOc1cc(N2CCOCC2)c(OCC)cc1NC(=O)COC(=O)CCOc1ccc(C)cc1	7.71%
CC(C(=O)Nc1ccc(F)c(F)c1)N1CCN(C)CC1.O=C(O)C(=O)O (stereo not shown)	16.1%
COc1ccccc1C(=O)NCc1nnc(SC(C)C(=O)Nc2nccs2)n1C (stereo not shown)	10.9%
CCCNC(=O)C(Cc1cccc(C#N)c1)NC(=O)c1ccc(C#N)cc1 (stereo not shown)	-2.17%
CC(C)(C)OC(=O)C1C(=O)CC(C)(O)C(C(=O)OC(C)(C)C)C1c1cccnc1 (stereo not shown)	12.9%
C[C@H](NC(=O)C1CC(=O)N(c2ccc3c(c2)OCO3)C1)C(=O)NC1CCCCC1 (stereo partly shown)	0.0211%
CCOC(=O)Nc1sc(C)nc1-c1ccccc1	13.9%
O=C1CCCN1CC(O)CS(=O)(=O)Cc1ccc(Cl)cc1Cl (stereo not shown)	10.2%
CCC(C)/C(C)=N/NC(=O)CNS(=O)(=O)c1ccc([N+](=O)[O-])cc1 (stereo not shown)	0.923%
CC1CC(C)CN(C(=O)Cn2c(SCC(=O)N3CCc4ccccc4C3)nc3ccccc32)C1 (stereo not shown)	8.52%
O=c1[nH]c(=S)[nH]c(O)c1N=Nc1ccc(S(=O)(=O)N2CCOCC2)cc1	11.1%
CS(=O)(=O)c1ccc(Sc2nc3ccccc3[nH]2)c([N+](=O)[O-])c1	-7.12%
CN(CC(=O)Nc1c(Cl)cccc1Cl)C(=O)CCC1CCCC1	16.7%
CC(=O)C[C@H]1c2ccccc2S(=O)(=O)N1c1ccccc1	15%
O=C1CC(c2ccccc2)n2nc(N3C(=O)CCC3=O)nc2N1 (stereo not shown)	9.75%
O=C(O)c1ccc(-c2ccc(-c3ccccc3)cc2)s1	8.38%
O=C(CCCOc1ccc(Br)cc1)NNC(=O)c1ccncc1	3.38%
CCOC(=O)c1c(C)[nH]c(C)c1C(=O)COC(=O)/C=C/c1cccc(C(F)(F)F)c1	17.4%

Structure (SMILES)	hERG current change (%, negative = inhibition) at 1uM
Cc1nn2cc(-c3ccccc3)nc2s1	9.28%
O=C(Nc1ccc2c(c1)OCO2)c1cccc(S(=O)(=O)N2CCCC2)c1	5.28%
CC(NC(=O)c1ccco1)C1CCCO1 (stereo not shown)	-9.1%
Cc1cn(-c2cc(C(=O)Nc3ccc(C)c(NC(=O)N4CCNC4=O)c3)cc(C(F)(F)F)c2)cn1	8.83%
COc1ccc(N2C(=O)C3CCCN3C2=O)cc1 (stereo not shown)	-4.76%
Cc1ccc(C)c(NC(=O)CNC(=O)N2CC(=O)Nc3ccccc32)c1	16.2%
CCC(C)c1ccc(OCCCCN2CCOCC2)cc1 (stereo not shown)	-2.59%
COc1nc2ccc(C)cc2cc1-c1noc(-c2ccccc2)n1	11.1%
CCc1ccc(-c2nc(CS(=O)CC(=O)NCCN3CCCCCC3)c(C)o2)cc1 (stereo not shown)	1.25%
Cl.OCCN(CC#CC(O)(c1ccccc1)c1cccc(F)c1)CCO (stereo not shown)	14.5%
COCc1cc(C)nc2sc(C(=O)NC3CCCCC3)c(N)c12	9.17%
Cc1cc(C)nc(SCc2ccc(C(=O)N/N=C3\CC(C)CC(C)(C)C3)cc2)n1 (stereo not shown)	8.85%
CCOC(=O)c1cnc(SCC(=O)Nc2nnc(CC)s2)nc1N	12.6%
COCCCNS(=O)(=O)c1ccc(SC)cc1	8.83%
CCOC(=O)C(NC(=O)CC)(Nc1ccc(C(O)(C(=O)OCC)C(F)(F)F)cc1C)C(F)(F)F (stereo not shown)	6.23%
CC(/C=N/n1c(-c2cc(C)[nH]n2)n[nH]c1=S)=C\c1ccccc1	15.2%
COc1cc2c(cc1OC)CN(C(=O)CSc1n[nH]c(N)n1)CC2	11%
CN(Cc1cn(C)nc1-c1ccccc1F)CC1CCCCO1 (stereo not shown)	7.71%
CCOP(=O)(OCC)C(O)c1ccc(OC)c(OC)c1 (stereo not shown)	13.2%
COC(=O)COc1ccc(S(=O)(=O)NCc2ccco2)cc1	7.98%
Cc1cccc(CN2CCCC(C(=O)N3CCCCC3)C2)c1.O=C(O)C(=O)O (stereo not shown)	9.42%
Cc1c(NC(=S)N2CCN(c3ccc(F)cc3)CC2)c(=O)n(-c2ccccc2)n1C	8.35%

Structure (SMILES)	hERG current change (%, negative = inhibition) at 1uM
Cc1cc(NC(=O)CCC(=O)N(C2CC2)C2(C(=O)NC3CCCC3)CCC(C)CC2)no1 (stereo not shown)	3.79%
O=C(NC1CCCCC1)C(c1ccc(F)cc1)N(C(=O)c1csnn1)C1CC1 (stereo not shown)	13%
Cc1cccc(OCCCN2CCOCC2)c1C	12.8%
CCN(CC)S(=O)(=O)c1ccc(-c2nnc(SCC(=O)N3c4ccccc4CC3C)n2CC)cc1 (stereo not shown)	7.89%
COc1ccccc1/C=C/C(=O)NC(=S)Nc1ccc(S(=O)(=O)N(C)c2ccccc2)cc1	12.3%
Cc1cc(NC(=O)CSCC(=O)OCC(=O)Nc2ccc(OC(F)F)cc2)no1	4.09%
CN1C(=O)C(C)(C)c2cc(S(=O)(=O)NCC3CCC(C(=O)NCc4ccccc4)CC3)ccc21 (stereo not shown)	9.43%
O=[N+]([O-])c1cccnc1N1CCC(c2cc(-c3cccc(C(F)(F)F)c3)n[nH]2)CC1	-17.4%
O=C(CN1C(=O)NC2(CCCCCCC2)C1=O)NC1CCCc2ccccc21 (stereo not shown)	10.6%
COc1ccc(Nc2cc(C)nc3nc(C)nn23)c(OC)c1	3.76%
COC(=O)CN1C(=O)COc2ccc(S(=O)(=O)NCc3ccccc3)cc21	11.4%
O=C(C[n+]1cn(C(F)F)c2ccccc21)c1ccc(OC(F)F)cc1.[Br-]	-53.7%
COc1ccccc1NC(=O)c1cc[n+](C)cc1.[I-]	12.8%
CNc1cc(C)nc(-n2nc(C)cc2C)n1	1.09%
Cc1sc(NC(=O)COc2cccc(-n3cnnn3)c2)c(C#N)c1C	3.36%
Cc1ccc2[nH]c(C(F)(F)F)cc(=O)c2c1	15.4%
Cc1cnc(-n2c(=S)[nH]c3ccccc3c2=O)s1	6.53%
O=C(Nc1nnc(-c2ccncc2)s1)Nc1ccccc1F	14.4%
CCn1cc(/C=N\NC(=O)C2(C)CC2(Cl)Cl)c(C)n1 (stereo not shown)	11.6%
O=C(NCC(c1ccc(F)cc1)N1CCOCC1)c1cccnc1Sc1ccc(Cl)cc1 (stereo not shown)	7%
COc1ccc(-c2nnc3n(CCc4ccccc4)c(=O)c4ccccc4n23)cc1OC	10.4%
CCOC(=O)c1cnn(CCOC(=O)Cc2cccs2)c1NC(=O)Cc1cccs1	-1.4%

Structure (SMILES)	hERG current change (%, negative = inhibition) at 1uM
O=C(O)C/C(=C\c1ccc2c(c1)OCO2)c1nc2ccccc2s1	1.16%
CC1Cc2cc(/C=C3/SC(=S)N(C)C3=O)ccc2O1 (stereo not shown)	11.7%
COC(=O)C1=C(c2ccccc2OCc2ccccc2)C[C@@H]2CC[C@H]1N2C(=O)NCc1ccc(Br)cc1	11.8%
O=C(CCCn1c(=O)[nH]c2cc(Cl)ccc2c1=O)NC1CCCCCCC1	4.63%
COc1ccc2oc(C(=O)OC/C(O)=C(\C#N)c3nc4ccccc4[nH]3)c(C)c2c1	7.65%
COC(=O)C1=C(c2ccc(-c3ccccc3)c(F)c2)C[C@@H]2CC[C@H]1N2C(=O)NCCOc1ccc(OC)cc1	11.2%
Cc1c(S(=O)(=O)N2CC(C)CC(C)C2)c(=O)n(C)c(=O)n1C (stereo not shown)	1.33%
C/C(N)=C(/C#N)C(=O)COC(=O)c1ccccc1Oc1ccccc1	14.1%
Cc1cccc(N2CCN(Cc3nc(-c4cccc(Oc5ccccc5)c4)oc3C)CC2)n1	9.83%
N#C/C(=N/Nc1ccc(S(=O)(=O)N2CCOCC2)cc1)C(N)=O	4.44%
COc1ccc(N2C(=O)C3ON(C4SC(=S)N(C)C4(C)C)C(c4ccc([N+](=O)[O-])cc4)C3C2=O)cc1 (stereo not shown)	15.7%
Cc1ccc(/C=N/n2c(-c3cccnc3)n[nH]c2=S)s1	11.6%
CCCCN1C(=O)C(=O)N(CC(=O)c2cc(C)n(C3CC3)c2C)C1=O	-3.84%
Cc1nc2ccc(F)cc2cc1C(=O)Nc1cccc(Cl)c1C	13.2%
CCCn1c(=O)c(C(=O)NCc2ccccc2OC)c(O)c2ccccc21	17.4%
CN(/N=C/c1ccc(Br)o1)C1=NS(=O)(=O)c2ccccc21	11.1%
O=c1c2ccccc2c(/C=N/c2ncn[nH]2)c(O)n1Cc1ccccc1	20%
Cc1ccccc1-n1nnnc1-c1ccccc1	6.66%
CC(C)Oc1ccc(NC(N)=O)cc1	3.01%
CCC(=O)N(C)/C=C1\Sc2ccccc2C1=O	2.8%
O=C(C1CC1)N1N=C2CCCCC2C1(O)C(F)(F)F (stereo not shown)	24.6%
COc1ccc(N2CC(O)=C(c3nc(-c4ccc(F)cc4)cs3)C2=N)cc1Cl	0.998%
